Test results taken from PubChem BioAssay (NCI).
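Step 1: Grow cells in 96-well plates. Step 2: Expose to compound for 48 hours at 5 concentrations. Step 3: Interpolate endpoints linearly; if unreached, use highest concentration. The concentration for 50% growth inhibition is given as GI50.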 Some entries of the source have several records that differ or are many. The other results are left out here. An entry can have further records. For some assays here: A record mostly stands for its own series of concentrations, not given here; a value can be the end of its range. For some assays here: Values that stand side by side are repeated measurements in other runs, samples, wells, individuals or studies. Records carry a tag for their origin. A, B and so on number the origins entry by entry.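 TGI marks complete inhibition of growth.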

Experiments:
Assay in all cases: growth of human tumour cells (NCI), 48 h
[1] = system: K-562 leukemia
[2] = system: HCT-116 colon
[3] = system: SF-268 CNS
[4] = system: CCRF-CEM leukemia
[5] = system: SK-MEL-5 melanoma
[6] = system: UACC-257 melanoma
[7] = system: MDA-MB-435
[8] = system: HS 578T breast
[9] = system: LOX IMVI melanoma
[10] = system: CAKI-1 renal
[11] = system: MDA-N
[12] = system: UACC-62 melanoma
[13] = system: NCI-H23 lung
[14] = system: T-47D breast
[15] = system: NCI-H522 lung
[16] = system: PC-3 prostate
[17] = system: MCF7 breast
[18] = system: SW-620 colon
[19] = system: SK-OV-3 ovarian
[20] = system: HT29 colon
[21] = system: SNB-19 CNS
[22] = system: OVCAR-4 ovarian
[23] = system: DU-145 prostate
[24] = system: RPMI-8226 leukemia
[25] = system: SNB-75 CNS
[26] = system: KM12 colon
[27] = system: HOP-92 NSCLC
[28] = system: SR leukemia
[29] = system: NCI-H460 lung
[30] = system: SF-295 CNS
[31] = system: HOP-62 NSCLC
[32] = system: A549 NSCLC
[33] = system: KM20L2 colon
[34] = system: SN12C renal
[35] = system: OVCAR-5 ovarian
[36] = system: NCI/ADR-RES ovarian
[37] = system: M14 melanoma
[38] = system: A498 renal
[39] = system: COLO 205 colon
[40] = system: MOLT-4 leukemia
[41] = system: XF 498 CNS
[42] = system: HL-60(TB) leukemia
[43] = system: HCC-2998 colon
[44] = system: MALME-3M melanoma
[45] = system: UO-31 renal
[46] = system: NCI-H226 lung
[47] = system: EKVX NSCLC
[48] = system: OVCAR-3 ovarian
[49] = system: RXF 393 renal

For O=C1C=CC2(C=C1)CCN=c1c(O)c3c(c(O)c12)=NC=N3, the GI50 [1] was 5.29 µM [sample A, mean of 2 tests] and > 100 µM [sample B, 1 test], the GI50 [2] was 8.85 µM [sample A, mean of 2 tests] and > 100 µM [sample B, 1 test] and the GI50 [3] was 9.82 µM [sample A, mean of 2 tests] and > 100 µM [sample B, 1 test]. The GI50 [4] was 7.53 µM [sample A, mean of 2 tests] and > 100 µM [sample B, 1 test], the TGI [5] was 7.07 µM [sample A, mean of 2 tests] and > 100 µM [sample B, 1 test] and the GI50 [6] was 9.59 µM [sample A, mean of 2 tests] and > 100 µM [sample B, 1 test]. The GI50 [7] was 2.03 µM [sample A, mean of 2 tests] and > 100 µM [sample B, 1 test], the TGI [7] was 3.52 µM [sample A, mean of 2 tests] and > 100 µM [sample B, 1 test] and the GI50 [8] was 9.17 µM [sample A, mean of 2 tests] and > 100 µM [sample B, 1 test]. For the same molecule, the GI50 [9] was 3.57 µM [sample A, mean of 2 tests] and > 100 µM [sample B, 1 test], the GI50 [10] was 8.7 µM [sample A, mean of 2 tests] and > 100 µM [sample B, 1 test] and the GI50 [11] was 1.82 µM [sample A, mean of 2 tests] and > 100 µM [sample B, 1 test]. For the same molecule, the TGI [11] was 3.31 µM [sample A, mean of 2 tests] and > 100 µM [sample B, 1 test], the GI50 [12] was 2.69 µM [sample A, mean of 2 tests] and > 100 µM [sample B, 1 test] and the TGI [12] was 6.33 µM [sample A, mean of 2 tests] and > 100 µM [sample B, 1 test]. For the same molecule, the GI50 [13] was 3.08 µM [sample A, mean of 2 tests] and > 100 µM [sample B, 1 test], the GI50 [14] was 8.19 µM [sample A, mean of 2 tests] and > 100 µM [sample B, 1 test] and the GI50 [15] was 5.89 µM [sample A, mean of 2 tests] and > 100 µM [sample B, 1 test].
For COC(=O)[C@@H](C)C[C@H](Cc1ccccc1)NC(=O)c1csc([C@@H](C[C@H](C(C)C)N(C)C(=O)[C@@H](NC(=O)[C@H]2CCCCN2C)C(C)C)OC(C)=O)n1, the GI50 [16] was < 0.1 nM and 2.5 nM, the GI50 [1] was 0.205 nM and 2.5 nM and the GI50 [17] was < 0.1 nM and 2.5 nM. For the same molecule, the GI50 [2] was 0.181 nM and 2.5 nM, the GI50 [18] was 0.234 nM and 2.5 nM and the GI50 [19] was 0.243 nM and 2.5 nM. The GI50 [20] was < 0.1 nM and 2.5 nM, the GI50 [21] was 0.494 nM and 2.37 µM and the GI50 [22] was 0.289 nM and 3.62 µM. For the same molecule, the GI50 [23] was < 0.1 nM and 2.5 nM, the TGI [23] was 1.25 nM and > 25 µM and the GI50 [24] was 0.137 nM and 2.5 nM. The GI50 [25] was 0.222 nM and 2.5 nM, the GI50 [12] was 0.121 nM and 2.5 nM and the GI50 [26] was < 0.1 nM and 2.5 nM. For the same molecule, the TGI [27] was 450 nM and < 2.5 nM, the GI50 [28] was < 0.1 nM and 2.5 nM and the GI50 [29] was < 0.1 nM and 2.5 nM. The GI50 [30] was 0.219 nM and 2.5 nM.
With Nc1ccn([C@@H]2C=C(CO)[C@@H](O)[C@H]2O)c(=O)n1 the TGI [17] was 7.07 µM, 486 µM, > 625 µM, the TGI [31] was 92.5 µM and 511 nM and the TGI [2] was 3.16 µM, 38.8 µM, 1.89 µM. For the same molecule, the TGI [32] was 7.31 µM, 89.4 µM, > 625 µM, the GI50 [33] was 62.5 nM [1 test] and 5 nM [mean of 2 tests] and the TGI [34] was 3.88 µM, 500 µM, 587 nM. For the same molecule, the TGI [35] was 4.19 µM and 335 µM, the TGI [19] was 4.38 µM, 130 µM, 4.53 µM and the GI50 [4] was 278 µM [1 test] and 31.6 nM [mean of 4 tests]. For the same molecule, the TGI [36] was 1.53 µM, 272 µM, 180 µM, the TGI [37] was 8.31 µM and 500 µM and the TGI [38] was 4.19 µM and 315 µM. The TGI [39] was 5.86 µM and 195 µM, the GI50 [21] was 68.9 nM [1 test] and 2.78 µM [mean of 2 tests] and the TGI [22] was > 625 µM [1 test] and 6.78 µM [mean of 4 tests] and 162 µM [mean of 8 tests]. The TGI [8] was 9.51 µM and 422 µM, the TGI [40] was 586 nM and 12.3 µM and the TGI [41] was 204 µM and < 62.5 nM. For the same molecule, the TGI [9] was 3.44 µM, 42.5 µM, 1.13 µM, the TGI [24] was 45.2 µM [1 test] and 135 µM [mean of 10 tests] and 5.96 µM [mean of 3 tests] and the GI50 [42] was 62.5 nM [1 test] and 6.04 nM [mean of 3 tests]. The TGI [42] was 4.4 µM, 44.1 µM, > 625 µM, the TGI [27] was 2.45 µM, 25.1 µM, 9.16 µM and the TGI [28] was 3.22 µM and 500 µM. The TGI [13] was 6.22 µM and 387 µM, the TGI [43] was 2.7 µM, 500 µM, > 625 µM and the TGI [44] was 493 µM and 5.19 µM. For the same molecule, the TGI [45] was 7.49 µM, 242 µM, 114 µM and the TGI [15] was 6.15 µM and 326 µM.
In the case of CCNc1nc(N2CC(=O)Nc3cc(OC)ccc32)c2ccccc2n1, the GI50 [46] was 3.02 nM and 1.18 µM, the TGI [38] was 8.29 nM and 82.7 µM and the GI50 [22] was 0.955 nM and 798 nM. For the same molecule, the GI50 [47] was 0.556 nM and 22.3 nM, the TGI [48] was 3.94 nM and 3.27 µM and the TGI [49] was 8.25 nM and > 100 µM. For the same molecule, the TGI [43] was 9.38 nM and 1.4 µM and the GI50 [45] was 8.06 nM and 214 nM.
